Key:
[1] = target: MT-binding domain of ensconsin-cyan fluorescent protein-FKBP-rapamycin binding domain (EMTB-CFP-FRB) (Artificial Sequence); test: FRET live-cell imaging in co-transfected HeLa cells, 100 nM rapamycin
[2] = target: intracellular microtubules (MTs)

Sequence of MT-binding domain of ensconsin-cyan fluorescent protein-FKBP-rapamycin binding domain (EMTB-CFP-FRB) (Artificial Sequence) (chain, as listed by the source): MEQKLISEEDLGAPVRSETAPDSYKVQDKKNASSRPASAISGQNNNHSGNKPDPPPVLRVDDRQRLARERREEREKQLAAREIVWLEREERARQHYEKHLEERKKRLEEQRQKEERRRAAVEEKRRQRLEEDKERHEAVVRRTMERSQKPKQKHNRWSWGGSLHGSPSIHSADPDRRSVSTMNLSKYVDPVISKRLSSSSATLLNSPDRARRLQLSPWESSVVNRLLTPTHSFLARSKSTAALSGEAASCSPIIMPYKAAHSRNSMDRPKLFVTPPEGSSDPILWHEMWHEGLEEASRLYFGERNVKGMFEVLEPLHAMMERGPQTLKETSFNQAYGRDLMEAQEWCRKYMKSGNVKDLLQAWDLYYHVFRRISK

T½ of translocation [1]: 1.01 min | half time of MT disruption (MT filament area) [2]: 11.1 min
B1: dNSpastin3Q-YFP-FKBP (enzyme)
chain: MESGAVPKRKDPLTHASNSLPRSKTVLKSGSAGLSGHHRAPSCSGLSMVSGARPGPGPAATTHKGTPKPNRTNKPSTPTTAVRQQQDLKNFRNVDSNLANLIMNEIVDNGTAVKFDDIAGQELAKQALQEIVILPSLRPELFTGLRAPARGLLLFGPPGNGKTMLAKAVAAESNATFFNISAASLTSKYVGEGEKLVRALFAVARELQPSIIFIDEVDSLLCERREGEHDASRRLKTEFLIEFDGVQSAGDDRVLVMGATNRPQELDEAVLRRFIKRVYVSLPNEETRLLLLKNLLCKQGSPLTQKELAQLARMTDGYSGSDLTALAKDAALGPIRELKPEQVKNMSASEMRNIRLSDFTESLKKIKRSVSPQTLEAYIRWNKDFGDTT[about 100 residues omitted]

Reference: patent US20230203471A1, “METHOD AND PLATFORM FOR DISRUPTING INTRACELLULAR MICROTUBULES” (National Tsing Hua University, priority 2021, published 2023)
